{
  "source": "the supplement of paper PMC11417369",
  "note": "± gives the standard deviation of the averaged measurements. Some of the results follow.",
  "data": [
    {"system": "PfAP2-LT AP2 domain (GST-tagged)", "assay": "gcPBM binding intensity (ln(normalized median fluorescence intensity)); higher = stronger DNA binding", "how_it_was_run": "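An Agilent 4 × 180k array of primer-extended double-stranded 36-bp intergenic genomic probes, with negative controls, was incubated for 1 h with GST-tagged P. falciparum DNA-binding domains expressed in E. coli. Alexa488 anti-GST antibody detected bound protein, scanned at 488 nm. Binding intensity is the highest Masliner-normalised natural-log median intensity across replicate spots of either probe orientation.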", "values": [
      {"sequence": "AAAAAAATCTCCAGTGTGCACAATCACATAATATAT [GTGCAC_site9833]", "gcPBM binding intensity (ln)": "9.27 ± 0.47"},
      {"sequence": "GAGATAAAATAAAACACACACATATATATATAGAAT [CACACA_site2197]", "gcPBM binding intensity (ln)": "9.54 ± 0.33"},
      {"sequence": "TATACGTATTTTATATGTACACATATACATATTTAT [XGTACX_site5301]", "gcPBM binding intensity (ln)": "9.15 ± 0.48"},
      {"sequence": "TTTTCTTTTAAGTTTGTTTTACACTTTTTATTTTGA [CACACA_negctrl_site1581]", "gcPBM binding intensity (ln)": "8.71 ± 0.68"},
      {"sequence": "AATATATGGTTTCATGATATTAAATTCAATTTAATG [GTGCAC_negctrl_site370]", "gcPBM binding intensity (ln)": "8.4 ± 0.36"},
      {"sequence": "AAATATAAATATACTCGTACATATATATATATATAT [XGTACX_site6940]", "gcPBM binding intensity (ln)": "9.47 ± 0.26"},
      {"sequence": "ATATATATATATAGTAGTACTCTCTCTGTATATATA [XGTACX_site3754]", "gcPBM binding intensity (ln)": "9.29 ± 0.057"},
      {"sequence": "ATTTAGAAAAATAAAACACACATATATCTGTAAATA [CACACA_site6119]", "gcPBM binding intensity (ln)": "9.13 ± 0.35"},
      {"sequence": "TTCCTTTGTTGTCGTTGTACTTATATGGTTATAATT [XGTACX_site3082]", "gcPBM binding intensity (ln)": "9.11 ± 0.36"},
      {"sequence": "TATACATAAAAAAATTTTACCAGGTTAATACAAATA [CACACA_negctrl_site1171]", "gcPBM binding intensity (ln)": "8.57 ± 0.42"},
      {"sequence": "TACCTTATGTTATATACACACATATAACATAATATA [CACACA_site6741]", "gcPBM binding intensity (ln)": "8.96 ± 0.36"},
      {"sequence": "AATTAGACATAATATACACACATATATTATATATAT [CACACA_site2691]", "gcPBM binding intensity (ln)": "9.02 ± 0.45"},
      {"sequence": "TTCAAAAGATATATCGTGCACATATATATGATGAAA", "gcPBM binding intensity (ln)": "8.88 ± 0.47"},
      {"sequence": "ATTTTTTTGGAATTCACACACAAAAAAAAAAATAAA [CACACA_site2081]", "gcPBM binding intensity (ln)": "8.79 ± 0.47"},
      {"sequence": "TCCACACAATTTATAACATGCAAAAAGGCAATAATA [TGCATGCA_site773]", "gcPBM binding intensity (ln)": "8.74 ± 0.47"},
      {"sequence": "TAGGTATATAAATAATGTACATATAAACTATATAGA [XGTACX_site2597]", "gcPBM binding intensity (ln)": "8.9 ± 0.54"},
      {"sequence": "ATGTTGAGTATATATACACACATACAGATATATATA [CACACA_site4967]", "gcPBM binding intensity (ln)": "9.18 ± 0.35"},
      {"sequence": "ATACATTCTTATTACTGTACAGGGTTAATTATTTGT [XGTACX_site948]", "gcPBM binding intensity (ln)": "9.02 ± 0.49"},
      {"sequence": "TGGAGATAAAATAAAACACACACATATATATATATA [CACACA_site8683]", "gcPBM binding intensity (ln)": "9.945 ± 0.035"},
      {"sequence": "ATTATTTTATTTATTGGTACGTAATTGTAGATTTCT [XGTACX_site3697]", "gcPBM binding intensity (ln)": "8.78 ± 0.4"},
      {"sequence": "GCAAAAACAAACGTCACACATACAAAGGCCGTGTAA [CACACA_site6043]", "gcPBM binding intensity (ln)": "9.07 ± 0.47"},
      {"sequence": "TTCCAACCAATACAAACATGCATTTGAAAAAATGTA [TGCATGCA_site119]", "gcPBM binding intensity (ln)": "8.6 ± 0.46"},
      {"sequence": "TTCGCCCTAAATAGAGTGCATTATATATATTAATAT", "gcPBM binding intensity (ln)": "8.74 ± 0.4"},
      {"sequence": "ATAAAATAAATATAACCACACACGAAAGAGAGAGAA [CACACA_site9075]", "gcPBM binding intensity (ln)": "9.41 ± 0.35"},
      {"sequence": "TTTTTAGGAAAGGCGGCACACATTTATATATTTATT [CACACA_site3672]", "gcPBM binding intensity (ln)": "8.98 ± 0.4"}
    ]}
  ]
}
